# Assay results published in the supplement of paper PMC3334620.
# Whole data set: some 33,000 sequences, median “E-score (-0.5 to 0.5)” near -0.012, cut for the highest 2% near 0.29. This is one part of the list.
# Biological target: T1, Ybr033w (UniProt P38073)
# T1 sequence: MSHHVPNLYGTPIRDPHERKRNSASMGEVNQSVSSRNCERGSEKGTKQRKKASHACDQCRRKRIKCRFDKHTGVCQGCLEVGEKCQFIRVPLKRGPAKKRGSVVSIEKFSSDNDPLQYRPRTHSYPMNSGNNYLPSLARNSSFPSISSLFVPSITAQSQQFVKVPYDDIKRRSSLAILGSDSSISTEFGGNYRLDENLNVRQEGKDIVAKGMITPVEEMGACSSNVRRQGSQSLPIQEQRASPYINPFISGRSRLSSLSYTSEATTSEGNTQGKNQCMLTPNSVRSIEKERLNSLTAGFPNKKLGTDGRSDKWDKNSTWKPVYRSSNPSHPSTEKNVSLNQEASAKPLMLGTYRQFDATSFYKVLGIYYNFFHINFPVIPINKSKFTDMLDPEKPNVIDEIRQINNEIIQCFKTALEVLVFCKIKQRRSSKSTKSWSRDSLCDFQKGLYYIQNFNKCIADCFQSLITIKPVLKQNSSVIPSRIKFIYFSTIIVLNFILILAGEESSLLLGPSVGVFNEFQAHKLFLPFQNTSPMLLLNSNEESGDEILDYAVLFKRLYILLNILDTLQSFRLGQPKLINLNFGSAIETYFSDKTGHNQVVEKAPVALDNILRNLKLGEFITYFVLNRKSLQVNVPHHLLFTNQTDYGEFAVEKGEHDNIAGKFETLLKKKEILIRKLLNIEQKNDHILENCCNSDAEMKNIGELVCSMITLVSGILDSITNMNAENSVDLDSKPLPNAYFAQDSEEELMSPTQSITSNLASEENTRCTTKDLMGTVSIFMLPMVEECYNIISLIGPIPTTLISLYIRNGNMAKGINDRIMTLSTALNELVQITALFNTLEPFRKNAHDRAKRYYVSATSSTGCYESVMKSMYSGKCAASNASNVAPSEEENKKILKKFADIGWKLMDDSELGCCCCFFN
# Assay: PBM E-score (8-mer binding enrichment) (E-score (-0.5 to 0.5)); higher = stronger / more preferred TF binding; most listed sequences are background and not binding sites
# Details: protein concentration: 200 nM; construct: GST-full length
# In short: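 GST-tagged yeast TFs (full-length or DNA-binding domain) were made by PURExpress in vitro transcription/translation and applied at about 100-200 nM to universal all-10-mer Agilent arrays. The arrays were made double-stranded by primer extension, on fresh or once-stripped slides. Bound protein was detected with fluorescent anti-GST, and scans were normalised with masliner. Each ungapped eight-base word, pooled with its reverse complement, received an E-score (modified Wilcoxon-Mann-Whitney statistic) from the Universal PBM Analysis Suite.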
row,Sequence,PBM E-score
1,CCTTAACG,-0.0917
2,CACCACCA,0.0182
3,AAATGCGG,0.148
4,ATTTTACC,0.362
5,GTTTGGAA,0.144
6,CGCTTCCA,-0.0888
7,ATAGGCGG,0.0815
8,CGCGACAC,0.0555
9,GGACAGAC,-0.174
10,ACCACGTA,-0.0972
11,GAAGGATC,0.0683
12,AGTGCGTA,-0.0382
13,CGAGGAAG,-0.0631
14,GACAGTGC,-0.0743
15,ACTTCTCA,0.0478
16,CAATACCG,-0.0706
17,CGTGAGCA,-0.128
18,CCTTATGA,-0.0328
19,CCTTTCAG,-0.166
20,CAAGTTAC,0.19
21,GGAGCGCA,-0.142
22,ATCATCTG,-0.0103
23,ACCATTTG,0.116
24,AAGATTTC,0.169
25,TCAGACCA,-0.0453

row,Sequence,PBM E-score
1,AGCTTGAA,-0.0326
2,GAACTAAA,0.215
3,CAGTCCCG,-0.248
4,CGTGTCAA,-0.172
5,GCGATTAA,0.19
6,AGTAGCTG,0.0396
7,AACTATAT,0.335
8,GAGGCGTA,0.0335
9,CGTGCTAG,-0.127
10,ACCCCACA,-0.236
11,AAGGGTGC,-0.214
12,TAGTCTCA,0.0372
13,CATTTCCG,0.12
14,CCCGCCAG,-0.117
15,CTACGACA,0.0516
16,ACCCAGAG,-0.0801
17,CGTTAGGC,-0.135
18,CAAAAAGA,0.182
19,AACCTACT,0.111
20,CTCGGAGC,0.0468
21,AGCTCCAA,0.165
22,GGCCTCGA,-0.296
23,CCTGGCAA,-0.178
24,GTCACTAA,0.0794
25,ATTACCGC,0.0454

row,Sequence,PBM E-score
1,TCAAGGGA,-0.0131
2,GCTTCCCC,-0.414
3,ATCAACCC,0.144
4,AGGCGCGA,-0.143
5,GGAGATCC,-0.0693
6,TTGCAAAA,0.192
7,AATGTCTA,0.194
8,CACCGACC,-0.0888
9,ACTGCGAT,-0.045
10,AGACCGCA,-0.0665
11,AATGTTAA,0.106
12,CAAGCAAG,-0.0591
13,CATTTGGA,0.0587
14,AGAGTTCA,0.0551
15,GACCCGTC,-0.337
16,CGGGGGGA,-0.321
17,CTAAGTTC,-0.0342
18,AACATATA,0.298
19,AGGGCTGG,-0.0666
20,GGCAAGTA,0.0178
21,AATAAAAC,0.283
22,CATGATTC,-0.131
23,GTCAGAAA,0.0734
24,ACACAACC,-0.169
25,ATAATGGA,0.0954

row,Sequence,PBM E-score
1,CGTGCAGC,-0.125
2,ACCCATTC,0.00112
3,ATTACTAA,0.225
4,GGGGGCCA,-0.335
5,ACATGCTG,-0.0338
6,ATACTATG,0.111
7,CGAAGTGC,0.00932
8,GTATTCCA,-0.0248
9,TTACTAAA,0.279
10,CCTAGGCG,-0.207
11,AATTCACA,0.23
12,GACGGGGC,-0.347
13,CAACGTTA,0.173
14,CCCGTAGC,-0.135
15,AATAAGCG,-0.0835
16,CTACACAC,-0.0439
17,GCAATGCC,-0.0686
18,CCACGTAA,-0.124
19,GGACAAGA,-0.0717
20,ATATTCAA,0.3
21,ACCGGATC,0.0115
22,GTCCCCCA,-0.251
23,CCTAAGAA,0.0716
24,CCACTCCG,-0.112
25,AAGCTACG,-0.148

row,Sequence,PBM E-score
1,CTTAGTCA,-0.0627
2,AAGGTTGG,-0.0428
3,GATTGAGA,0.198
4,GTATTGGA,0.037
5,GCCGAAAC,0.0384
6,AATTAGAT,0.284
7,GCATCGCA,-0.229
8,AACGATAC,0.15
9,GATAGTCC,-0.0766
10,GCCATGTA,-0.0592
11,TAATAACA,0.226
12,ACGATCCA,-0.048
13,CAGTAATC,-0.0846
14,AGACAAAG,0.00167
15,AACTTTAT,0.184
16,CGAATGAG,-0.0437
17,ATTTTACG,0.328
18,GGCTAAAA,0.033
19,CCTCTAAC,-0.0254
20,ACTGACAT,-0.0918
21,ATAGATCC,0.186
22,AGACGAGA,0.0985
23,CTTGGGCA,0.0253
24,GCTCCCCA,-0.305
25,ATAGATTC,0.135

row,Sequence,PBM E-score
1,ATACGTAT,0.207
2,AACGATTA,0.0219
3,ATCGGCGA,-0.203
4,ATGGCACG,-0.185
5,CAACATGG,0.0405
6,ACCCTGCA,0.133
7,GGGACGTA,-0.176
8,AAAAGTGT,-0.129
9,AATTACCA,0.203
10,CTAACCTA,0.0168
11,GAATCGAC,0.0824
12,GAGACTGA,0.133
13,GCCCATAA,-0.191
14,CGCTTACA,0.0289
15,CTGTAGCC,-0.264
16,GCTCACCA,-0.109
17,TGTAGCAA,0.142
18,ATTATGTC,0.17
19,AAGCTTCC,-0.092
20,GGGCAGGA,-0.198
21,TAGTTTAA,0.135
22,AACTCATT,0.0776
23,AGTGGCCA,-0.073
24,CATGCATG,-0.0573
25,AGAATACC,0.143

row,Sequence,PBM E-score
1,AGTACCGG,-0.182
2,CTAAGTAG,0.168
3,GAGGTCGC,-0.307
4,CGAGACTC,-0.0955
5,GACCGGGC,-0.187
6,TAACCCTA,0.132
7,GCGTAGCA,-0.019
8,ACCGCCGT,-0.154
9,GATCTGCC,-0.18
10,AAAGAATC,0.00391
11,GAGCAGCA,-0.0932
12,ACAGCAAT,0.192
13,CCGTTCCC,-0.227
14,ATACGATC,0.0365
15,AGAGCTAG,-0.141
16,CTAGAGGA,-0.102
17,GTAGTCAC,-0.156
18,AAGGGGTG,-0.332
19,CGCTACTC,0.108
20,ACTTCGAT,0.0816
21,AGTGTAGC,0.12
22,GCCTGCAA,-0.119
